Measurements: PubChem BioAssay AID493208 (National Center for Advancing Translational Sciences (NCATS), 2011)
Screen size: about 44,000 compounds; about 340 (0.77%) were called active. About 5% were inconclusive and are not listed. The call rests on the fitted dose curve; in most records, active means well fitted inhibition curve with a large enough effect; inconclusive means small, poorly fitted or top-dose-only effect; inactive means flat fitted curve, though single readings scatter. This is one part of the list.

Assay: Acumen qHTS Assay for Inhibitors of the mTORC1 Signaling Pathway in MEF (Tsc2-/-, p53-/-) Cells: Sytravon;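 further: plate controls were DMSO for no effect and rapamycin for full effect; nearly all actives have a fitted effect of over 50% in size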
Details: phospho-rpS6 immunofluorescence/PI, 24 h; series mostly up to 38.3 µM; activity change, negative = inhibition: at the top concentration
Method in brief: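 Cell-based qHTS: Tsc2-/- p53-/- MEF, 24 h cpd, 37 °C; fix/perm, anti-phospho-S6 Alexa-488 + PI; Acumen 488 nm scan; pS6/PI ratio, % positive cells; rapamycin 7.5 nM = inhibition ref; PI count = viability.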

Activity change, negative = inhibition, inactive:
COC(=O)c1ccc(-n2nnc(-c3nc(-c4ccccc4Cl)no3)c2C)cc1 5.57%, COc1cc(OC)cc(C(=O)Nc2ccc(-c3nc4ccccc4s3)c(C)c2)c1 -2.38%, Cc1ccc(N2C(=O)CS(=O)(=O)C23C(=O)N(Cc2ccccc2C)c2ccccc23)cc1Cl (stereo not drawn) 1.88%, CN1CCN(C(=O)Cn2c(-c3cccs3)cc3ccccc32)CC1 -9.17%, Cc1nc2ccn(Cc3ccco3)c(=O)c2cc1C(=O)Nc1ccc(F)cc1 -0.287%, COc1ccc(NC(=O)Cn2nc(-c3ccccc3)c3cnc4ccc(C)cc4c32)cc1 -13.5%, Cc1ccc(OCC(=O)Nc2ccc3c(c2)sc(=O)n3C)cc1 2.41%, COc1ccc(-n2c(=O)[nH]c3cc(C(=O)NCCc4ccc(Cl)cc4)ccc3c2=O)cc1OC -13.5%, CCOC(=O)c1c(NC(=O)COc2ccc(CC)cc2)sc2c1CCCC2 -0.191%, Cc1ccc(-c2nc(C(=O)N3CCN(c4ccccc4)CC3)c3n2CCCCC3)cc1 4.44%, CCC(Sc1ncccc1C(=O)Oc1ccccc1Cl)C(=O)Nc1ccccc1OC (stereo not drawn) -1.21%, COc1ccc(NC(=O)C(NC(=O)C2CCC(C)CC2)C(C)C)cc1 (stereo not drawn) -1.76%, Cc1ccc2c(=O)c(C(=O)c3ccccc3)cn(CC(=O)Nc3ccc(C)c(Cl)c3)c2n1 6.13%, CCCNC(=O)c1ccc2c(c1)nc(C)n2-c1cccc(C)c1 -8.94%, Cc1nn(C)c2c1c(C(F)(F)F)cc(=O)n2C(C)C(=O)NCCC(C)C (stereo not drawn) 0%, Cc1ccc(-c2ccc(CCC(=O)O)n2-c2cccc(C)c2C)cc1 0.0644%, CCOc1ccc(Br)cc1S(=O)(=O)Nc1cccc(-c2ccc(OC)nn2)c1 -1.9%, Cc1ccc(C)c(N2CCN(C(=O)CN3C(=O)COc4ccc(S(=O)(=O)N5CCC(C)CC5)cc43)CC2)c1 1.17%, Cc1ccc(N2CCN(S(=O)(=O)c3ccc(-n4cnnn4)cc3)CC2)c(C)c1 -3.8%, COc1ccc(-n2c(=O)c3c4c(sc3n(Cc3ccc(C(C)(C)C)cc3)c2=O)CCC4)c(OC)c1 -0.254%, CCn1nnc2cc(C(=O)Nc3ccc(OC)cc3)ccc21 9.8%, Cc1ccc(Cl)cc1N1CCN(C(=O)c2ccc3c(c2)N(Cc2ccccc2)CCS3)CC1 0.363%, COc1ccc(CCNC(=O)c2cc(=O)[nH]c3ccc(S(=O)(=O)N4CCCCC4C)cc23)cc1OC (stereo not drawn) -7.97%, Cc1cn2c(=O)cc(COC(=O)c3ccc(NC(=O)C(C)Oc4ccccc4)cc3)nc2s1 (stereo not drawn) 10.3%, CCOCCCNC(=O)c1c(NC(=O)c2nc(SC)ncc2Cl)sc2c1CCCC2 1.37%, Fc1ccc(Nc2c(-c3ccccn3)nc3ccc(Cl)cn23)cc1 -2.98%, O=C(Nc1cc(Cl)cc(Cl)c1)c1cc(S(=O)(=O)N2CCC3(CC2)OCCO3)ccc1F -10.1%, O=C(NCCc1ccccc1)c1nn(-c2ccccc2Cl)nc1CO -2.45%, COc1ccc(OC)c(NC(=O)CCNC(=O)Cn2cnc3ccccc3c2=O)c1 8.46%, CCOC(=O)c1c(N)n(-c2cc(C)cc(C)c2)c2nc3ccccc3nc12 7.59%, COc1cccc(NC(=O)Cc2csc(COc3cccc(C)c3)n2)c1 -2.11%, COCCn1c(C)cc(O)c(C(c2ccc(OC)cc2)N2CCN(c3ccccc3)CC2)c1=O (stereo not drawn) 6.23%, Cc1ccc(C)c(-n2nnc(C(=O)Nc3ccc(Br)cc3)c2C)c1 -0.43%, Cc1ccc(-n2ncc3c(Nc4cccc(C(F)(F)F)c4)ncnc32)cc1C 5.57%, Cc1cc2c(cc1S(=O)(=O)NCc1ccccc1Cl)OCC(=O)N2 -0.609%, COc1cccc(-c2nc(CS(=O)(=O)CC(=O)NCCc3ccc(Cl)cc3)c(C)o2)c1 1.74%, Cc1cc(C)cc(NC(=O)COCc2cc(-c3ccc4c(c3)OCO4)on2)c1 -4.28%, COc1cccc(N2CCN(C(=O)C3CCN(S(=O)(=O)c4cn(C)cn4)CC3)CC2)c1 15.8%, CCOCCn1c(=O)c2c(nc3n2CCN3c2ccc(C)c(C)c2)n(C)c1=O -1.74%, CC1CCCCN1C(=O)CSc1c2c(nc3cc(Cl)ccc13)CCCC2 (stereo not drawn) -21.5%, CC(C)c1ccc(NC(=O)c2cnc3sc(N4CCOCC4)nn3c2=O)cc1 3.22%, NS(=O)(=O)c1ccc(NC(=O)c2csnn2)cc1 0.671%, COc1ccc(OC)c(NC(=O)Cn2cnc3onc(-c4ccc(Cl)cc4)c3c2=O)c1 23.6%, COc1ccc(NC(=O)CN(C)S(=O)(=O)c2ccc3c(c2)c(=O)n(C)c(=O)n3C)cc1 -2.31%, COc1ccc(-c2nc3ccc(Cl)cn3c2Nc2ccc(C)cc2)cc1 6.34%, Cc1ccc(C(=O)NCC(c2ccco2)S(=O)(=O)c2ccc(Cl)cc2)cc1C (stereo not drawn) -5.8%, CCCCNC(=O)c1cn(C)c2ccc(S(=O)(=O)N3CCCC3)cc2c1=O -8.62%, COc1ccc(OCC2c3cc(OC)c(OC)cc3CCN2C(=O)c2c(F)cccc2F)cc1 (stereo not drawn) -3.77%, CCc1ccc(-n2nc(CO)c(C(=O)NCc3cccs3)n2)cc1 1.82%, Cc1ccc(NC(=O)CCn2c(=O)c3cccn3c3ccccc32)cc1Cl -7.59%, O=C(CSc1nc(=O)n(Cc2ccco2)c2c1CCC2)NCc1ccc(Cl)cc1 -6.61%, COc1cc(OC)c(NC(=O)Cn2cnc3sc(C)c(S(=O)(=O)N4CCC(C)CC4)c3c2=O)cc1Cl -13%, COc1ccc(N2CC(NC(=O)C(=O)c3c(C)[nH]c4ccccc34)CC2=O)cc1 (stereo not drawn) -0.0434%, Cc1cc(C)c2nc(N(Cc3cccnc3)C(=O)Cc3ccccc3)sc2c1 -0.218%, Cc1cc(C)n(-c2nc3ccccc3nc2Nc2cc(Cl)ccc2C)n1 2.09%, Cc1cc(NC(=O)Nc2nnc(N3CCCCC3)s2)ccc1Br -1.14%, Cc1ccc(C(=O)N2CCN(Cc3cc(=O)n4nc(-c5ccccc5)sc4n3)CC2)cc1 -5.11%, COc1ccccc1CNC(=O)CSc1nc(=O)[nH]c2c1CCCC2 -2.03%, CCN(Cc1ccccc1)C(=O)Cn1c(=O)n(-c2ccc(Cl)c(Cl)c2)c(=O)c2c(C)c(C(=O)N(C)C)sc21 -6.18%, COc1ccc(CCNC(=O)c2cc(=O)c3ccc(C)cc3o2)cc1OC -8.77%, CCCCCn1c(=O)[nH]c2cc(C(=O)NC(C)CC)ccc2c1=O (stereo not drawn) 0.279%, COCCn1c(=O)[nH]c2cc(C(=O)Nc3ccc(OC)cc3)ccc2c1=O -0.645%, COc1ccc(C(=O)Nc2ccc3oc(-c4cccnc4)nc3c2)cc1OC 5.56%, CCOc1ccc(CNC(=O)c2ccc3c(c2)nc2n3CCCCC2)cc1 5.58%, Cc1ccc2c(c1)cc(C(=O)NCc1ccccc1C)n2C 1.53%, CCc1cnc2c(c1SCC(=O)Nc1ccc(C(=O)OC)cc1)c(=O)n(C)c(=O)n2C 0.363%, CC(C)Oc1ccc(CNC(=O)C2CCN(Cc3cc4ccccc4n3Cc3ccccc3)CC2)cc1 -6.6%, CC(C)(C)c1ccc(OCCOCCn2c(-c3ccc(Cl)cc3)nc3ccccc3c2=O)cc1 -0.0361%, CCn1c2ccccc2c2cc(NC(=O)COc3cc(C)ccc3C)ccc21 7.42%, Cc1cccc(Cn2c(COc3ccccc3)nc3ccccc32)c1 -18.4%, O=C(/C=C/c1ccccc1)Nc1nc2n(n1)C(c1ccc(F)cc1)C=C(c1ccccc1)N2 (stereo not drawn) -2.41%, CC(C)Oc1ccc(CNC(=O)c2ccc(NC(=O)N3CC(C)Sc4ccccc43)cc2)cc1 (stereo not drawn) -6.34%, CC1CCc2onc(C(=O)N3CCN(c4cccc(Cl)c4)CC3)c2C1 (stereo not drawn) 5.14%, CCOC(=O)CNC(=O)c1cc2c(=O)n3cccc(C)c3nc2n1C -16.3%, CCc1nn2c(=O)c(S(=O)(=O)Nc3ccc(C)c(C)c3)c(C)nc2s1 3.64%, CCc1cccc(C)c1NC(=O)c1cnn(-c2ccc(OC)cc2)c1C1CCN(C(=O)OC(C)(C)C)CC1 -6.04%, COc1ccc(NC(=O)c2nc(-c3ccc(C)cc3)n3c2CCCCC3)c(OC)c1 9.45%, CCOCCc1nn2c(=O)cc(COC(=O)c3ccc(NC(=O)C(C)(C)C)cc3)nc2s1 3.98%, Cc1cc2oc(C(=O)N(Cc3ccco3)Cc3ccccc3Cl)c(C)c2cc1C -5.69%, CCOC(=O)c1ccccc1NC(=O)c1cnc(N2CCOCC2)c2ccccc12 -2.59%, Cc1ccc(SCC(=O)Nc2ccc3oc(-c4ccccc4F)nc3c2)cc1 -2.59%, COc1ccc(N2CC(NC(=O)/C=C\c3ccccc3)CC2=O)cc1OC (stereo not drawn) 0.749%, Cc1nn(C)c(C)c1CCNC(=O)Nc1ccccc1C(F)(F)F 0%, CCN(CC)c1nn2c(=O)c(C(=O)NCc3ccc(N(C)C)cc3)cnc2s1 0%, COc1ccc(CNC(=O)Cn2c(-c3ccccc3)cc(C(C)=O)c2C)cc1OC 0.468%, CN(Cc1ccco1)S(=O)(=O)c1nnc(NC(=O)c2ccccc2Cl)s1 -4.26%, CCC(=O)N1CCc2cc(S(=O)(=O)NC(C(=O)NCCc3cccc(C)c3)C(C)C)ccc21 (stereo not drawn) -0.773%, O=C(NCc1cccs1)c1ccc(CSc2nc3ccncc3n2Cc2ccccc2F)cc1 -1.38%, COc1ccc(C(=O)CCC(=O)Nc2ccc(C)c(Cl)c2)cc1 0.441%, COc1cc(Cl)c(C)cc1Nc1nc2ccccc2n2cnnc12 -1.31%, COc1ccccc1CNC(=O)C1CCN(S(=O)(=O)c2cn(C)cn2)CC1 0%, O=C(NCCc1csc(-c2ccc(F)cc2)n1)c1cccc(F)c1 -0.817%, Cc1ccc(C2c3[nH]c4ccccc4c3CCN2C(=O)CSCc2ccc(F)cc2)cc1 (stereo not drawn) 4.93%, CCc1ccccc1N(C)C(=O)c1sc2nc3n(c(=O)c2c1C)CCCCC3 -1.26%, O=C(Nc1ccccc1-c1nc2ccccc2s1)c1ccc(F)cc1 0.519%, Clc1ccc(-c2cc3ncc4c(n3n2)-c2ccccc2OC4)cc1 3.66%, COc1ccc(CCNc2nc3c(-c4cccc(C(F)(F)F)c4)nnn3c3ccccc23)cc1OC -8.46%, Cc1ccc(CN2CCCn3nc(C(=O)NCc4ccc(N(C)C)cc4)cc3C2=O)cc1 22.8%
